According to the supplement of paper PMC4604168 (melanoma cell lines):
Some of the results follow. Many values rest on one well or one pass, so single values are uncertain.

Assays:
Assay in all cases: cell count relative to DMSO control; melanoma cells; higher = more viable cells
Settings in all cases: library dose: low library concentration; 72 h
WM115 = system: WM115
WM1716 = system: WM1716
WM1745 = system: WM1745
WM3526 = system: WM3526
WM3619 = system: WM3619
WM451Lu = system: WM451Lu
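Also: cell number obtained by counting DAPI-stained nuclei in high-throughput microscope images with image analysis software, screen run in 1,536-well plates.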

SMILES | cell count (WM115) [%] | cell count (WM1716) [%] | cell count (WM1745) [%] | cell count (WM3526) [%] | cell count (WM3619) [%] | cell count (WM451Lu) [%]
C[C@]12O[C@H](C[C@]1(O)CO)n1c3ccccc3c3c4c(c5c6ccccc6n2c5c31)CNC4=O [Lestaurtinib] + O=S(=O)(c1ccccc1)N(CC(F)(F)F)c1ccc(C(O)(C(F)(F)F)C(F)(F)F)cc1 [T0901317] (first compound 0.004 µM, partner dose 1.4 µM) | 101 | 102 | 80.4 | 75.7 | 116 | 114
Cn1cc(C2=C(c3cn(C4CCN(Cc5ccccn5)CC4)c4ccccc34)C(=O)NC2=O)c2ccccc21 [Enzastaurin] + CO[C@@H]1[C@H](N(C)C(=O)c2ccccc2)C[C@H]2O[C@]1(C)n1c3ccccc3c3c4c(c5c6ccccc6n2c5c31)C(=O)NC4 [Midostaurin] (first compound 0.8 µM, partner dose 0.08 µM) | 81.7 | 63.8 | 73 | 89.2 | 120 | 71.1
C[As](C)SC[C@H](NC(=O)CC[C@H](N)C(=O)O)C(=O)NCC(=O)O [Darinaparsin] + CCCCCCCCCCCC1=C(O)C(=O)C=C(O)C1=O [Embelin] (first compound 0.4 µM, partner dose 1.2 µM) | 93.6 | 111 | 95.6 | 100 | 105 | 117
C[As](C)SC[C@H](NC(=O)CC[C@H](N)C(=O)O)C(=O)NCC(=O)O [Darinaparsin] + COc1cc2ncnc(Nc3ccc(Oc4ccccc4)cc3)c2cc1OC [SrcI1] (first compound 0.4 µM, partner dose 2 µM) | 99.4 | 127 | 81.5 | 101 | 113 | 113
C[C@]12O[C@H](C[C@]1(O)CO)n1c3ccccc3c3c4c(c5c6ccccc6n2c5c31)CNC4=O [Lestaurtinib] + CCCCCCCCc1ccc(CCC(N)(CO)CO)cc1 [fingolimod] (first compound 0.004 µM, partner dose 2 µM) | 85.7 | 99.5 | 82.3 | 77.8 | 108 | 91.4
N.N.[Cl][Pt][Cl] [cisplatin] + CC(C)(C)c1cnc(CSc2cnc(NC(=O)C3CCNCC3)s2)o1 [SNS-032] (first compound 1.6 µM, partner dose 0.01 µM) | 103 | 116 | 97.9 | 97.6 | 115 | 89.9
C[C@]12O[C@H](C[C@]1(O)CO)n1c3ccccc3c3c4c(c5c6ccccc6n2c5c31)CNC4=O [Lestaurtinib] + OCc1c[nH]c2ccccc12 [Indole-3-carbinol] (first compound 0.004 µM, partner dose 0.8 µM) | 107 | 122 | 109 | 79.3 | 126 | 90.8
C[C@]12O[C@H](C[C@]1(O)CO)n1c3ccccc3c3c4c(c5c6ccccc6n2c5c31)CNC4=O [Lestaurtinib] + Cn1c(Nc2ccc(C(F)(F)F)cc2)nc2cc(Oc3ccnc(-c4ncc(C(F)(F)F)[nH]4)c3)ccc21 [CHIR265] (first compound 0.004 µM, partner dose 0.08 µM) | 67.1 | 105 | 74.4 | 71.2 | 81.7 | 120
N.N.[Cl][Pt][Cl] [cisplatin] + C[C@]1(c2nc3c(C(N)=O)cccc3[nH]2)CCCN1 [Veliparib] (first compound 1.6 µM, partner dose 1.4 µM) | 85.9 | 85.2 | 93.6 | 85.5 | 79.6 | 113
Cn1cc(C2=C(c3cn(C4CCN(Cc5ccccn5)CC4)c4ccccc34)C(=O)NC2=O)c2ccccc21 [Enzastaurin] + COc1cc(N2CCC(N3CCN(C)CC3)CC2)ccc1Nc1ncc(Cl)c(Nc2ccccc2S(=O)(=O)C(C)C)n1 [NVP-TAE684] (first compound 0.8 µM, partner dose 0.08 µM) | 99.2 | 108 | 70.1 | 88 | 104 | 93.8
C[As](C)SC[C@H](NC(=O)CC[C@H](N)C(=O)O)C(=O)NCC(=O)O [Darinaparsin] + COc1ccc(-c2ccc3c(N4CCOCC4)nc(N4C[C@@H](C)O[C@@H](C)C4)nc3n2)cc1CO [KU0063794] (first compound 0.4 µM, partner dose 0.02 µM) | 90.9 | 84.5 | 91.7 | 115 | 91.4 | 89.4
Cn1cc(C2=C(c3cn(C4CCN(Cc5ccccn5)CC4)c4ccccc34)C(=O)NC2=O)c2ccccc21 [Enzastaurin] + Cn1cncc1[C@@](N)(c1ccc(Cl)cc1)c1ccc2c(c1)c(-c1cccc(Cl)c1)cc(=O)n2C [tipifarnib] (first compound 0.8 µM, partner dose 0.01 µM) | 90.3 | 95.3 | 107 | 120 | 126 | 92
C[C@]12O[C@H](C[C@]1(O)CO)n1c3ccccc3c3c4c(c5c6ccccc6n2c5c31)CNC4=O [Lestaurtinib] + COC(=O)c1sccc1S(=O)(=O)Nc1ccc(Nc2ccccc2)cc1OC [GSK0660] (first compound 0.004 µM, partner dose 1 µM) | 116 | 111 | 95.7 | 85.9 | 122 | 96.9
C[C@]12O[C@H](C[C@]1(O)CO)n1c3ccccc3c3c4c(c5c6ccccc6n2c5c31)CNC4=O [Lestaurtinib] + C=C(c1ccc(C(=O)O)cc1)c1cc2c(cc1C)C(C)(C)CCC2(C)C [Bexarotene] (first compound 0.004 µM, partner dose 2 µM) | 97.6 | 97.5 | 87.1 | 70.3 | 109 | 103
N.N.[Cl][Pt][Cl] [cisplatin] + CC(=O)c1c(C)c2cnc(Nc3ccc(N4CCNCC4)cn3)nc2n(C2CCCC2)c1=O [palbociclib] (first compound 1.6 µM, partner dose 0.04 µM) | 95.2 | 88.1 | 103 | 84.3 | 87.5 | 83.4
Cn1cc(C2=C(c3cn(C4CCN(Cc5ccccn5)CC4)c4ccccc34)C(=O)NC2=O)c2ccccc21 [Enzastaurin] + CN(C)S(=O)(=O)c1ccc2c(c1)/C(=C/c1cc3c([nH]1)CCCC3)C(=O)N2 [SU6656] (first compound 0.8 µM, partner dose 0.4 µM) | 81.9 | 112 | 94.5 | 93 | 114 | 119
C[C@]12O[C@H](C[C@]1(O)CO)n1c3ccccc3c3c4c(c5c6ccccc6n2c5c31)CNC4=O [Lestaurtinib] + CC(C)C[C@H](NC(=O)[C@H](Cc1ccccc1)NC(=O)c1cnccn1)B(O)O [Bortezomib] (first compound 0.004 µM, partner dose 0.001 µM) | 87.3 | 38.4 | 81 | 95 | 55.4 | 88.9
Cn1cc(C2=C(c3cn(C4CCN(Cc5ccccn5)CC4)c4ccccc34)C(=O)NC2=O)c2ccccc21 [Enzastaurin] + CCc1ccc(CCOc2ccc(CC3SC(=O)NC3=O)cc2)nc1 [pioglitazone] (first compound 0.8 µM, partner dose 2 µM) | 122 | 114 | 85.9 | 110 | 86.5 | 111
C[C@]12O[C@H](C[C@]1(O)CO)n1c3ccccc3c3c4c(c5c6ccccc6n2c5c31)CNC4=O [Lestaurtinib] + C#Cc1cccc(Nc2ncnc3cc(OCCOC)c(OCCOC)cc23)c1 [erlotinib] (first compound 0.004 µM, partner dose 0.8 µM) | 90 | 98.1 | 92.6 | 64.8 | 85.8 | 115
Cn1cc(C2=C(c3cn(C4CCN(Cc5ccccn5)CC4)c4ccccc34)C(=O)NC2=O)c2ccccc21 [Enzastaurin] + COc1cc(Nc2ncc(F)c(Nc3ccc4c(n3)NC(=O)C(C)(C)O4)n2)cc(OC)c1OC [Tamatinib] (first compound 0.8 µM, partner dose 0.4 µM) | 98.9 | 87.5 | 76 | 95.4 | 81 | 107
N.N.[Cl][Pt][Cl] [cisplatin] + Cn1c(Nc2ccc(C(F)(F)F)cc2)nc2cc(Oc3ccnc(-c4ncc(C(F)(F)F)[nH]4)c3)ccc21 [CHIR265] (first compound 1.6 µM, partner dose 0.08 µM) | 106 | 93.3 | 96.6 | 104 | 106 | 88.6
N.N.[Cl][Pt][Cl] [cisplatin] + Nc1nc(F)nc2c1ncn2[C@@H]1O[C@H](CO)[C@@H](O)[C@@H]1O [fludarabine] (first compound 1.6 µM, partner dose 0.2 µM) | 65 | 86.3 | 110 | 27.6 | 105 | 53.3
C[C@]12O[C@H](C[C@]1(O)CO)n1c3ccccc3c3c4c(c5c6ccccc6n2c5c31)CNC4=O [Lestaurtinib] + COc1cc(Nc2ncc(F)c(Nc3ccc4c(n3)NC(=O)C(C)(C)O4)n2)cc(OC)c1OC [Tamatinib] (first compound 0.004 µM, partner dose 0.4 µM) | 93.9 | 107 | 69.7 | 89.9 | 104 | 93
C[C@]12O[C@H](C[C@]1(O)CO)n1c3ccccc3c3c4c(c5c6ccccc6n2c5c31)CNC4=O [Lestaurtinib] + N.N.[Cl][Pt][Cl] [cisplatin] (first compound 0.004 µM, partner dose 1.6 µM) | 90.2 | 94.1 | 79.2 | 82.3 | 80.2 | 87.9
N.N.[Cl][Pt][Cl] [cisplatin] + O=C(Oc1ccc([N+](=O)[O-])cc1)N1CCC(C(O)(c2ccc3c(c2)OCO3)c2ccc3c(c2)OCO3)CC1 [JZL184] (first compound 1.6 µM, partner dose 1 µM) | 94 | 94.6 | 95.5 | 89.1 | 104 | 95.5
